According to patent publication US11479601B2, “Antibodies specific to Sonic Hedgehog and method of use thereof” (The Regents of the University of California, priority 2016, dated 2022):

Tests used:
A549 cells = assay: Viability of A549 cells treated with Shh antibodies ± GLI inhibitor 249C; assay type: cell-based, human; conditions: for Cell viability of A549 cells: 249C at 40 nM where added
Experimental: The effect of the C-terminal Shh antibodies from clones 2G4 and 2D9 on the viability of A549 cells was determined. A549 cells were exposed to increasing concentrations of the C-terminal Shh antibodies (2G4, 2D9), or antibodies against the N-terminal portion of Shh protein (6D3, 2E1), and the effective dose (ED50) was determined (assay 1: FIG. 16A; assay 2: FIG. 16B). […] Possibly due to the fact that very few cells express full-length Shh on the cell surface, the cytotoxic effect of the C-terminal Shh antibodies was not as potent as the cytotoxic effect of the N-terminal antibodies.
Next, the cytotoxicity of the C-terminal Shh antibodies was tested when the antibodies were used in conjunction with a small-molecule inhibitor of GLI zinc-finger transcription factor signaling, 249C (4-(5-chlorofuran-2-yl)-1,3-bis(2,4-difluorophenyl)-5-methyl-N-((4-methylmorpholin-2-yl)methyl)-4,5-dihydro-1H-pyrazole-5-carboxamide; Compound 135 above). A549 cells were exposed to varying concentrations of the C-terminal antibodies (2G4, 2D9) or the N-terminal antibodies (6D3, 2E1), in the presence or absence of a very low dose (40 nM) of 249C. (The IC50 of 249C in A549 cells is ˜70 nM.)

[1] = test system: Shh 247-264 AA and Shh 448-462 AA peptides; assay: Biolayer interferometry (Octet RED 384) with Shh peptide-mimic ligands; assay type: binding, human; conditions: 37-3000 nM peptides; versus IgG control antibody
Experimental: Antibody immobilization was checked via Octet® Software (ForteBio) prior to introduction of increasing concentrations (37, 111, 333, 1000, 3000 nM) of Sonic Hedgehog peptide-mimic ligands (Shh 247-264 AA and Shh 448-462 AA). Graphical output from the Octet® Software of representative data from two independent experiments is presented.

[2] = molecular target: T1, cell-surface Sonic Hedgehog on A549 cells (Homo sapiens, UniProt Q15465); assay: FACS of non-permeabilized A549 cells labeled with anti-Shh antibodies; assay type: binding; conditions: A549, without membrane permeabilization
T1 construct: recognize cell-surface expression of Sonic Hedgehog, A549 cells were labeled with in-house antibodies; endogenous in cells; host or cells: A549
Experimental: A549, 293T or 293T (+pCMV Shh) cells were labeled with Sonic Hedgehog (Shh) antibody (Abcam 53281, 1:100) or therapeutic test antibodies (1:100) for 1 hour at RT post serum blocking. Following two PBS washes, a FITC-conjugated secondary antibody (Abcam 97029, 1:100) or an Alexa-Fluor 647 (Invitrogen, 1:1000) was used to label cells. Samples were screened by flow cytometry using an Accuri™ C6 machine (BD Biosciences). For fluorescence activated cell sorting, samples were sorted using an S3e™ Cell Sorter (Bio-Rad) and the Shh+ population was collected. For all experiments, cells processed without primary antibody served as a negative control. Experiments were performed in duplicates or triplicates.
To corroborate that the two anti-Shh antibodies, 1C11-2G4 and 1C11-2D9, recognize cell-surface expression of Sonic Hedgehog, A549 cells were labeled with in-house antibodies and sorted via Fluorescence Activated Cell Sorting (FACS) without membrane permeabilization. […] BMC Cancer. 15:84 (2015); Singh S, Trevino J, Bora-Singhal N, Coppola D, Haura E, Altiok S, Chellappan S P. EGFR/Src/Akt signaling modulates Sox2 expression and self-renewal of stem-like side-population cells in non-small cell lung cancer. Mol Cancer. 11:73 (2012); Cochrane C R, Szczepny A, Watkins D N, Cain J E. Hedgehog Signaling in the Maintenance of Cancer Stem Cells. Cancers (Basel). […]

Shh protein = assay: Ex vivo Shh staining of excised A549 xenograft tumors; assay type: in vivo, mice; conditions: intra-tumor antibody 158 μg; compared to control tumor samples
Experimental: The in vivo effect of the C-terminal Shh antibodies were tested using the A549 cell subcutaneous xenograft tumor model in mice, as described in Example 1. After xenograft formation, animals were intra-tumor injected with a C terminal Shh antibody (2G4 or 2D9; each at 158 μg), or a control solution, 3 times a week for about 3 weeks (at 2-3 day intervals). Tumor volume was determined, as described in Example 1, every 2 days. Weight and size of the excised tumor were determined after the antibody treatment. […]
Control IgG and Ab 1C11-2G4-treated A549 tumors harvested from mice were sectioned ([…]) and stained with a commercially available Sonic Hedgehog (Shh) antibody (Abcam 53281, 1:100) post acetone fixation, 0.2% Triton-X 100 permeabilization and serum blocking steps. […] DAPI (Vector Laboratories) mounting medium were used to stain sections prior to imaging at 20× magnification using a Zeiss Axiolmager 2 fluorescence microscope. […]
To assess the effects of antibody administration on hedgehog epitope occupancy, tumors were sectioned and stained with a commercial antibody specific for sonic hedgehog (Shh). […] Confirmatory results were observed when ground up permeabilized tumor cells were labeled with the commercially available Shh antibody and assessed using flow cytometry; 1C11-2G4-treated tumors (20%-Shh-labeled) contrasted with IgG controls (80%-Shh-labeled) (FIG. 46B).

B1: 2D9: purified mouse monoclonal C-terminal Shh antibody from hybridoma sub-clone 2D9 of clone 1C11, IgG1 kappa (antibody)
heavy: EVKLVESGGGLVKPGGSLKLSCAASGFTFSSYTMSWVRQTPAKRLEWVATISSGGGNTYYPDSVKGRFTISRDNARNTLYLQMSSLRSEDTAMYYCARDYRSLFAYWGQGTLVTVSAAKTTPPSVYPLAPGSAAQTNSMVTLGCLVKGYFPEPVTVTWNSGSLSSGVHTFPAVLQSDLYTLSSSVTVPSSTWPSETVTCNVAHPASSTKVDKKIVPRDCGCKPCICTVPEVSSVFIFPPKPKDVLTITLTPKVTCVVVDISKDDPEVQFSWFVDDVEVHTAQTQPREEQFNSTFRSVSELPIMHQDWLNGKEFKCRVNSAAFPAPIEKTISKTKGRPKAPQVYTIPPPKEQMAKDKVSLTCMITDFFPEDITVEWQWNGQPAENYKNTQPIMDTDGSYFIYSKLNVQKSNWEAGNTFTCSVLHEGLHNHHTEKSLSHSPGK
light: QIVLTQSPAIMSASPGEKVTITCSASSSVSYMHWFQQKPGTSPKLWIYSTSNLASGVPARFSGSGSGTSYSLTISRMEAEDAATYYCQQRSSYPFTFGSGTKLEIKRADAAPTVSIFPPSSEQLTSGGASVVCFLNNFYPKDINVKWKIDGSERQNGVLNSWTDQDSKDSTYSMSSTLTLTKDEYERHNSYTCEATHKTSTSPIVKSFNRNEC
Cell viability of A549 cells (A549 cells; Ab conc. 32 ng/mL): 93% | Cell viability of A549 cells (A549 cells; Ab conc. 64 ng/mL): 65% | Cell viability of A549 cells (A549 cells; Ab conc. 128 ng/mL): 80% | synergy with a GLI inhibitor in reducing viability of non-small cell lung cancer cells (A549 cells; with 249C at 40 nM): act synergistically | binding response to Shh peptide-mimic ligands (BLI) [1]: increases in binding response | Shh+ cells recognized from a mixed population (FACS) [2]: 0.05% | cells expressing Shh protein in excised tumor (immunostaining) (Shh protein): fewer cells expressing Shh protein
